Test results taken from PubChem BioAssay AID1508624 (National Center for Advancing Translational Sciences (NCATS), 2021).
Screen size: about 48,000 compounds; about 120 (0.25%) were called active. Not shown: some 4% with an inconclusive outcome. Calls follow the shape of the dose curve; as a rule, active = well fitted activation curve with a large enough effect; inconclusive = small, poorly fitted or top-dose-only effect, or another doubt; inactive = no such curve, though single readings can be large or run the other way. Some of the results follow.

Experiment: Primary qHTS for Identification of Small Molecule Activators of Huntingtin-Antisense Promoter Activity; also: nearly all actives have a fitted effect of over 55% in size
Settings: HEK293 HTT-AS promoter firefly luciferase reporter, 24 h; series mostly up to 57.5 µM; activity change, positive = activation: at the top concentration
How it was run: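 HEK293 Fluc reporter, 2,500 cells/well, 24 h pre-culture; cpds up to 57.5 uM final, 24 h 37 degrees C; Dual-Glo, 10 min RT; normalized vehicle = 0%, zero RLU = -100%.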

Activity change, positive = activation, inactive:
Cc1c(C(=O)N2CCC(c3nc4ccccc4s3)CC2)oc2ccc(Cl)cc12 8.65% [at 11.5 µM, percent change from vehicle, -100% = no light]
Cc1ccc(Cl)cc1NC(=O)Cn1c(=O)oc2cc(S(=O)(=O)N3CCCC3)ccc21 -42.6%
Cc1ccc2c(CC(=O)Nc3ccc(S(=O)(=O)N4CCCCC4)cc3)coc2c1 -5.23%
CCOc1ccccc1N(C)C(=O)C1CCCN(c2ncnc3c2nc2n3CCCCC2)C1 (stereo not given) 2.3%
Nc1ccc(S(N)(=O)=O)cc1
Cc1cc(C)c2c(=O)nc(SCc3ccccc3C)n(C3CC3)c2n1 4.12%
Cc1ccc(NC(=O)c2cc(-c3ccc(Br)s3)nc3ccccc23)cc1F -0.401%
COCCn1c(=NC(=O)c2ccc3c(c2)OCCO3)sc2cc(C(=O)OC)ccc21 -24.5%
COc1ccc(C(=O)OC2=C(C(=O)c3ccccc3)N(C)S(=O)(=O)c3ccccc32)cc1OC -8.25%
COc1ccc(-n2ncc3c(NCCC4=CCCCC4)ncnc32)cc1 21.4%
Cc1noc(/C=C/c2ccco2)c1S(=O)(=O)N1CCC(C(=O)Nc2ccc(F)c(Cl)c2)CC1 -45.3%
Cc1ccccc1-c1nc(CS(=O)(=O)CC(=O)NCc2cccc(Cl)c2)c(C)o1 -12.8%
CCC1=Nc2cc(C(=O)NC3CCCC3)ccc2Sc2ccc(Br)cc21 -46.2%
Cc1ccc(N2CC(C(=O)Nc3ccc(Br)cc3)CC2=O)cc1 (stereo not given) -1.29%
Cc1ccc2c(=O)c(C(=O)c3cccc(Cl)c3)cn(CC(=O)NCc3ccc(F)cc3)c2n1 -14.4%
C=Cc1ccc(CN2C(=O)N(c3cccc(Cl)c3)S(=O)(=O)c3ccccc32)cc1 -18.1%
COc1ccc(C(=O)n2nc(-c3ccco3)nc2NCc2cccs2)cc1 6.74%
COC(=O)c1ccccc1NC(=O)Cn1nnc2sc(-c3ccccc3)cc2c1=O -2.46%
CCOc1ccccc1NC(=O)NCCn1c(=O)oc2ccc(C)cc21 -19.1%
COc1ccccc1CNS(=O)(=O)c1cc2c3c(c1)CCN3C(=O)CC2 -10.8%
COc1ccc(-c2nc(-c3ccccc3)c(-c3ccc(O)cc3)[nH]2)cc1 -16.6%
COc1ccccc1C(=O)NCCn1cc(SCc2ccccc2Cl)c2ccccc21 -33%
O=C(/C=C/c1ccc(F)cc1)Nc1nc2n(n1)C(c1ccc(Cl)cc1)C=C(c1ccccc1)N2 (stereo not given) -17.2%
COc1ccc(Cn2c(C(=O)O)c(CNC3CCCCCC3)c3ccc(OC)cc32)cc1 -25.7%
COc1ccc(OC)c(CNC(=O)CCn2c(=O)c3cccn3c3ccc(F)cc32)c1 -13.5%
Cc1ccc2sc(N3CCN(C(=O)CCS(=O)(=O)c4ccc(F)cc4)CC3)nc2c1C -38.7%
CCOC(=O)c1ccc(NC(=O)c2ncn(-c3ccccc3)n2)cc1 28%
COc1ccc(N2CCN(C(=O)CCn3c(=O)c4cccn4c4cccnc43)CC2)cc1 -12.4%
CC(NC(=O)Nc1cc(Cl)ccc1Cl)c1c(-n2cccc2)sc2c1CCCC2 (stereo not given) -18.9%
CCN(CC)c1ccc(C(=O)N2CCC(c3c[nH]c4ccccc34)(c3c[nH]c4ccccc34)CC2)cc1 -23%
O=C(NC1CCN(Cc2ccccc2)CC1)c1ccc(Cn2c(=O)c3ccccc3n(Cc3ccccc3)c2=O)cc1 -22.9%
Cc1ccc(-c2nc(-c3cc4cccc(OCc5cccc(C)c5)c4oc3=O)no2)cc1 -1.64%
CCc1c(C)nc2nncn2c1Nc1ccc(C(C)C)cc1 -20.4%
Cc1ccc(CNC(=O)c2ccc(-n3cnc4cccnc43)cc2)cc1 -9.11%
CCc1ccc(NC(=O)Cn2c3ncccc3c(=O)n2-c2ccc(C)c(C)c2)cc1 -1.09%
Cc1ccc(NC(=O)/C(C#N)=C/c2cc(C)n(-c3ccc(F)cc3)c2C)cc1C -3.12%
O=C(c1ccc2c(c1)N(Cc1ccccc1F)C(=O)c1ccccc1S2=O)N1CCN(c2ccccc2)CC1 (stereo not given) -33.5%
O=C(NCc1cccc(Cl)c1)C(=O)Nc1ccc2nc3n(c(=O)c2c1)CCCCC3 -9.4%
CCCCN1CCCc2cc(CN(CCCN3CCOCC3)C(=O)Nc3ccc(OCC)cc3)ccc21 -27.1%
COc1ccc(C)cc1Nc1c2c(nc3nc(-c4cccs4)nn13)CCCC2 -8.58%
COc1cccc(CN2CCc3nc(SCC(=O)Nc4ccccc4)[nH]c(=O)c3C2)c1 -22.6%
CC(C)C[C@H](NC(=O)c1cc2ccccc2s1)C(=O)N1CCN(C(=O)[C@H](CO)NS(=O)(=O)c2ccc(Cl)cc2Cl)CC1 -23.9%
CCN(CC)S(=O)(=O)c1ccc2c(c1)N(CC(=O)N1CCN(c3ccccc3F)CC1)C(=O)CO2 -25.5%
Cc1ccc(NC(=O)N2CCc3cc(S(=O)(=O)N4CCC(C)CC4)ccc32)cc1C -1.15%
CCOC(=O)c1ccc(Nc2ncnc3c2cnn3-c2cccc(Cl)c2)cc1 14.5%
CCN(C(=O)c1cc2c(s1)-c1ccccc1OC2)c1cc(Cl)ccc1OC -28.8%
Cc1ccccc1NS(=O)(=O)c1nnc(NC(=O)c2ccccc2C)s1 -14%
O=S(=O)(NCCS(=O)(=O)N1CCN(c2ccccc2F)CC1)c1ccc(Cl)cc1 -16.6%
CC(NC(=O)Nc1ccccc1C(F)(F)F)c1c(-n2cccc2)sc2c1CCCC2 (stereo not given) -13.5%
COc1ccc(NCc2cc3cc4c(cc3n(CC(=O)Nc3ccc(C)cc3)c2=O)OCO4)cc1 10.8%
COc1ccccc1CNC(=O)Cn1ncc2c3ccccc3n(Cc3ccccc3C)c2c1=O -9.08%
CCOC(=O)c1ccc(NS(=O)(=O)c2ccc(Br)s2)cc1 -17.1%
COc1ccccc1NC(=O)CSc1oc(-c2cccs2)nc1S(=O)(=O)c1ccc(Br)cc1 -6.68%
CN(C(=O)CSc1nc2c(c(=O)[nH]1)CCCC2)c1ccccc1 -3.1%
CCOc1ccccc1NC(=O)C1CCN(S(=O)(=O)c2ccccc2)CC1 -8.18%
COc1ccc(-c2nc(SCC(=O)Nc3ccc4c(c3)OCO4)c(-c3ccc(OC)cc3)[nH]2)cc1 -30.6%
CCOc1ccc(S(=O)(=O)N2CCN(c3c(C)cccc3C)CC2)c2ccccc12 -25.3%
Cc1cc(C)cc(OC(=O)c2snnc2C)c1 -18.1%
O=C(NCCc1csc(-c2cccc(F)c2)n1)c1cccs1 -10.9%
O=C(Cc1ccccc1)Nc1sc2c(c1C(=O)Nc1ccc(Cl)cc1)CCCC2 -30%
Cc1cccc(NC(=O)CSc2nc3c([nH]c4ccccc43)c(=O)n2C)c1C -7.3%
N#C/C(=C\c1ccc(Cl)cc1)c1nc2ccccc2[nH]1 10.8%
Brc1ccccc1-c1ccccc1 -4.74% [at 116 µM, percent change from vehicle, -100% = no light]
CC(C)CCN(Cc1ccco1)C(=O)c1cc2c(Cl)nc3ccccc3c2s1 -29.5%
Cc1ccc(S(=O)(=O)CC(=O)Nc2sc3c(c2C#N)CCCCC3)cc1 -10.5%
COc1ccc(-c2noc(CSCC(=O)Nc3cccc(C(F)(F)F)c3)n2)cc1OC -10.6%
CCOc1ccc(C2Nc3ccccc3-c3nnc(SCc4ccccc4)nc3O2)cc1OC (stereo not given) 17.3%
CCCOc1ccc(-c2nn(-c3ccccc3)cc2C2NC(=O)NC(C)=C2C(=O)OC)cc1C (stereo not given) -15.4%
CCc1cccc(NC(=O)c2ccc(CN3C(=O)C(C)=C(c4ccc(OC)cc4)S3(=O)=O)cc2)c1 -36.9%
CCOc1ccccc1NC(=O)Nc1nnc(N2CCCCCC2)s1 12.6%
Cc1ccccc1CNC(=O)C1CCCN(S(=O)(=O)N(C)c2ccc(F)cc2)C1 (stereo not given) -26.2%
CCC(=O)N1CCc2cc(Br)cc(S(=O)(=O)CCC(=O)NCCc3ccc(Cl)cc3)c21 -0.56%
COc1cc(NC(=O)Cn2ncc3c([nH]c4ccc(C)cc43)c2=O)cc(OC)c1OC -23.1%
COc1cc(C(=O)Nc2ccc3oc(-c4ccccc4)nc3c2)cc(OC)c1OC -37.7%
Cn1c2ccccc2c2c(C(=O)N3CCN(c4ccc(F)cc4)CC3)cn(C3CCCCC3)c(=O)c21 -25.8%
COc1cc(Cl)c(C)cc1NC(=O)CSc1ncc(S(=O)(=O)c2ccc(C(C)(C)C)cc2)c(=O)[nH]1 -8.6%
O=C1Nc2ccc(S(=O)(=O)Nc3ccccc3O)c3cccc1c23 2.59%
CCOc1ccccc1Nc1cc(-c2ccccc2)nc(C)n1 -13.4%
COc1ccc(NC(=O)CSc2nnc(-c3cccs3)o2)cc1 27.3%
CC(C)(Oc1ccc(C2CC2(Cl)Cl)cc1)C(=O)O (stereo not given)
Cc1ccc(NC(=O)CSc2nc3c([nH]c4ccccc43)c(=O)n2-c2ccccc2)c(C)c1 -24.1%
CCCCN1CCc2nc(N3CCN(c4ncccn4)CC3)ncc2C1 -14.1%
CCN(c1ccccc1)S(=O)(=O)c1ccc(NC(=O)c2cc(=O)c3cc(C)c(C)cc3o2)cc1 0%
Cc1cccc(NS(=O)(=O)c2ccc3c(c2)CCN3C(=O)CCC(=O)O)c1C 19.4%
COc1cccc(-n2cc(C(=O)NCc3cccc(Cl)c3)c3ccccc3c2=O)c1 -25.7%
COc1ccccc1N1CCN(C(=O)Cn2c(=O)nc(-c3ccccc3)c3cc(Cl)ccc32)CC1 8.63%
CCOc1ccc(NC(=O)c2ccc(-c3ccccc3)s2)cc1 3.22%
Cc1nc2c(-c3ccc(F)cc3)c(C)nn2c(C)c1CCC(=O)NCc1ccc(Cl)cc1 -6.51%
CCOc1ccc(N2C(=O)N(Cc3ccc(C)cc3C)c3ccccc3S2(=O)=O)cc1 -17.3%
COc1ccccc1N1CCN(CC(O)COc2cc(C)cc(C)c2)CC1 (stereo not given) -11.6%
COc1cccc(CNC(=O)CCCN2C(=O)CSc3c2c(C)nn3-c2ccccc2)c1 -8.36%
NC(=O)[C@@H](CCC(F)(F)F)N(Cc1ccc(-c2ncon2)cc1F)S(=O)(=O)c1ccc(Cl)cc1 -27.7%
O=c1c2ccccc2n(Cc2cccc(F)c2)c(=O)n1Cc1ccccc1Cl -30.7%
COc1ccc(-c2ccc3c(N)c(C(=O)Nc4cc(F)ccc4C)sc3n2)cc1 -27.9%
Cc1cccc(Nc2c3c(nc4nncn24)CCC3)c1 -25.4%
